Results reported in the supplement of paper PMC3334620.
The full ranking holds about 33,000 sequences; the median of “E-score (-0.5 to 0.5)” is about -0.013, and the highest 2% start at about 0.3. Some of the results follow.

Each sequence was assayed against T1, Msn1 (UniProt P22148) (assay: PBM E-score (8-mer binding enrichment) (E-score (-0.5 to 0.5)); higher = stronger / more preferred TF binding; most listed sequences are background and not binding sites). Conditions: protein concentration: 200 nM; construct: GST-full length.
T1 sequence: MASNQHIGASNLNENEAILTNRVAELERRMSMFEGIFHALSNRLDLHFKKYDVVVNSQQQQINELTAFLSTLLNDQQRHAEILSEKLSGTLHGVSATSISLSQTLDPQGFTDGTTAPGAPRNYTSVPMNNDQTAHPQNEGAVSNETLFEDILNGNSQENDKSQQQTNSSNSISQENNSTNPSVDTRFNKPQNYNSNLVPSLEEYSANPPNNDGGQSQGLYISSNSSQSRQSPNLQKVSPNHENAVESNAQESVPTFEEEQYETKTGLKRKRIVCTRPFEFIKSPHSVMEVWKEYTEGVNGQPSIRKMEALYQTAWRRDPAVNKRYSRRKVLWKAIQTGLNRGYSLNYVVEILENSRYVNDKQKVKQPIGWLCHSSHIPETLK
Description: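 Universal 'all 10-mer' protein binding microarrays (Agilent AMADID 015681) probed with GST-tagged S. cerevisiae TFs (full-length or DBD) made by in vitro transcription/translation (PURExpress), about 100-200 nM. Bound TF was detected with fluorescent anti-GST. Each ungapped 8-mer (which stands for itself and its reverse complement) is scored by the PBM enrichment score (E-score), a modified Wilcoxon-Mann-Whitney statistic from -0.5 to +0.5, computed with the Universal PBM Analysis Suite. Scale: above 0.35 generally sequence-specific binding.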

Sequence	PBM E-score
GGTACATA	0.341
ACTAGAAC	0.0454
CTCATAGC	-0.264
ACTTGCCA	0.052
ATGTGAGG	0.0395
GAATTTTA	0.148
AGGGGGAT	-0.258
CACTTAGG	0.0127
ATTATAGA	0.118
CTCTTCGC	-0.0905
CAGGGGAG	-0.294
CGGTTACG	-0.0655
GCAACTCA	0.039
CCGGCGAC	-0.125
ACAATAAC	0.252
AGGGTTCC	0.0448
CTGAAGCA	-0.12
ACAAAAGG	0.229
CCGCATCC	-0.175
TAGCCTGA	-0.0702
CTACCCAG	-0.176
ACGTAATA	-0.0123
GGCCCTTA	-0.169
CGGACATC	0.387

Sequence	PBM E-score
CGCCGAAA	0.0948
TATGGAAA	0.071
CAGGGTAA	-0.144
CCTACTAG	-0.0734
CAGGATCA	-0.0384
CGCGGACC	0.0148
GGTCAAGA	-0.0244
AGTGGATC	-0.0598
ATATGGCG	0.0445
AGCACACG	-0.0792
AAAATAAC	0.0645
CACGTGAA	-0.00614
AGCCCAAT	-0.0201
GTCGGCAC	-0.0725
ACGAATGC	-0.0179
ACTTTTCA	0.151
CCTTTGTA	0.163
CCACTGGG	0.0913
AGGCAATC	-0.122
CGGGATCA	-0.189
AAGTACGT	0.159
ATCGCTTG	-0.0704
CACTCCGC	-0.0632
ACTTTCAG	0.0788

Sequence	PBM E-score
GCACTCCA	-0.172
GCCGAGAC	0.0883
CATATCTC	0.0938
ACGATCAT	-0.124
CAGACAGA	0.0672
CATCCCAA	0.148
GGTACGAC	-0.0567
GGCTACTA	-0.016
CTCGATGC	-0.106
AACTAAGT	-0.0397
GGCCAAGA	-0.148
CGTGAGAG	-0.269
CCCTGCAG	-0.245
CCTTCACG	0.0646
CCAAAGTC	0.113
CGTTTTGC	-0.0285
ATGTGTCC	0.438
GGCTGGAA	-0.193
CTCGCACA	-0.0644
GCTGGGGA	-0.22
CTGACAGC	-0.0864
GCATTACA	0.0174
CAAAAACC	0.133
AAAACCCG	0.0176

Sequence	PBM E-score
CTATTCAC	0.097
CAAGAAGA	0.0336
AAGAGTGT	0.0143
ACATCACT	-0.0274
CATCAACG	-0.0418
GATAGGAC	0.0626
GGGTTAGA	-0.178
CAGCAATC	-0.0488
ACGACATG	0.364
TGGTACCA	-0.0646
ACCTACAT	-0.0106
CGCAAGAG	-0.0111
ACGGTACT	-0.0539
GGATAGAC	-0.0706
GGGGCTAC	-0.288
AACATGAT	0.173
CACGAACC	-0.099
AAACACAC	0.0922
AAGCGATC	0.0576
TAATCCTA	-0.123
AAATCGCT	-0.11
CAGTAGCC	-0.286
